Results as given in ChEMBL document CHEMBL1961873, “Compounds: GSK PKIS; Assays: Nanosyn kinase panel” (2012).
Only a part is listed here, and it is no random draw.

Target: Protein kinase C alpha type (Homo sapiens) (UniProt P17252)
Conditions: at 0.1 µM
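Note: each value is the mean percent inhibition of PKC-alpha kinase activity.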

SMILES	inhibition
O=C1NC(=O)C(c2ccccc2)=C1Nc1ccccc1	1.42%
CC(C)(C)c1ccc(Oc2nccc(-c3c(-c4ccc(F)cc4)ncn3C3CCNCC3)n2)cc1	0.9%
Cc1cccc(Oc2nccc(-c3c(-c4ccc(F)cc4)ncn3C3CCNCC3)n2)c1C	0.78%
Fc1ccc(-c2ncn(C3CCNCC3)c2-c2ccnc(Oc3cccc(C(F)(F)F)c3)n2)cc1	0.04%
Fc1ccc(-c2ncn(C3CCNCC3)c2-c2ccnc(Oc3cccc(F)c3)n2)cc1	1.31%
O=C1NC(=O)C(c2ccccc2Cl)=C1Nc1cc(Cl)c(O)c(Cl)c1	0.29%
CS(=O)(=O)c1ccc(Oc2nccc(-c3c(-c4ccc(F)cc4)ncn3C3CCNCC3)n2)cc1	0.53%
COc1ccccc1C1=C(Nc2ccccc2)C(=O)NC1=O	1.1%
COc1ccccc1Oc1nccc(-c2c(-c3ccc(F)cc3)ncn2C2CCNCC2)n1	1.33%
NC(=O)CCc1ccccc1Oc1nccc(-c2c(-c3ccc(F)cc3)ncn2C2CCNCC2)n1	-0.77%
Fc1ccc(Oc2nccc(-c3c(-c4ccc(F)cc4)ncn3C3CCNCC3)n2)cc1	-3.28%
O=C1NC(=O)C(c2cccc([N+](=O)[O-])c2)=C1Nc1cc(Cl)c(O)c(Cl)c1	0%
Fc1ccc(-c2ncn(C3CCNCC3)c2-c2ccnc(Oc3ccc(Cl)cc3)n2)cc1	0.46%
O=C(O)c1ccc(Oc2nccc(-c3c(-c4ccc(F)cc4)ncn3C3CCNCC3)n2)cc1	0.88%
